The campaign covered roughly 390,000 compounds. About 930 (0.24%) were called active. Inconclusive results, whose numbers are uncertain, are shown with a selection of clear calls. The call rests on the fitted dose curve; in most records, active means well fitted activation curve with a large enough effect; inconclusive means small, poorly fitted or top-dose-only effect; inactive means no such curve, though single readings can be large or run the other way. Potencies beside an inconclusive call are fits to weak or partial responses and may not hold up.
Experiment: qHTS for Suppressors of FUS Proteinopathy: Primary screen using FUS-linked yeast assay; further: nearly all actives have a fitted effect of over 55% in size;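 on growth rescue (activation): plate controls were DMSO vehicle for no effect and reference control for full effect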
Conditions: S. cerevisiae FUS-expressing, OD600, 24 h; Potency: growth rescue; growth rescue (activation): at 76.6 µM (top of the series)
Summary of the method: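 S. cerevisiae expressing FUS from galactose induction served as the toxicity model. Growth after 24hr at 30C, read as absorbance at 600 nm, indicates suppression of toxicity; compounds dosed at several concentrations.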
Potency means the concentration at half of the fitted maximal effect; tags describe the fitted curve by direction and shape.

Row | SMILES | growth rescue (activation) | Potency
1 | O=C(O)CCC(=O)c1ccc(C2CCCCCC2)cc1 | inactive: -4.69% | –
2 | C=C(C)Cn1c(SCC(=O)N/N=C(\C)c2ccc([N+](=O)[O-])cc2)nnc1-c1ccc(Br)cc1 | inactive: 2.06% | –
3 | COc1ccc(COC(=O)c2cccc(S(=O)(=O)N3CCN(C(C)=O)CC3)c2)cc1F | – | inconclusive: 8.91 µM [activator, partial curve]
4 | COc1cccc(N2C(=O)C(CC(=O)Nc3ccc(F)cc3)N(CCC3=CCCCC3)C2=O)c1 (stereo not drawn) | – | inconclusive: 35.5 µM [activator, partial curve, poor fit]
5 | COc1ccc(/C=N/N=C2\SC(CC(=O)O)C(=O)N2c2ccccc2)c(OC)c1 (stereo not drawn) | – | inconclusive: 44.7 µM [activator, single point]
6 | CCOc1ccc(C(=O)Nc2ccc(C(=O)OCc3cc(=O)n4nc(CC)sc4n3)cc2)cc1 | inactive: -2.02% | –
7 | Oc1cnc2ccccc2c1CN1CCOCC1 | inactive: -9.32% | –
8 | S=c1[nH]nc(-c2ccccc2)n1CC1CCCO1 (stereo not drawn) | – | inconclusive: 5.62 µM [activator, single point]
9 | CC(C)C1C(=O)N(Cc2cn(Cc3ccco3)nn2)CCS(=O)(=O)N1Cc1ccc(-c2ccc(Cl)cc2)cc1 (stereo not drawn) | – | inconclusive: 31.6 µM [activator, single point]
10 | COc1ccccc1-c1c(C#N)c(N)nc2c1CCc1ccccc1-2 | – | inconclusive: 50.1 µM [activator, single point]
11 | CC1CCc2nc(NC(=O)c3ccco3)sc2C1 (stereo not drawn) | inactive: -2.33% | –
12 | Cc1cccn2c(=O)c(/C=C(\C#N)C(N)=O)c(N3CCN(c4ccccc4)CC3)nc12 | – | inconclusive: 44.7 µM [activator, single point]
13 | CCOC(=O)c1nc(Nc2ccc(Cl)cc2)c2c(C)noc2n1 | inactive: -14.8% | –
14 | Cc1cccc(-n2cnc(C(=O)O)c2)n1 | inactive: -0.117% | –
15 | CC(=O)Nc1cccc(NC(=S)Nc2cccc(Cl)c2Cl)c1 | inactive: -10% | –
16 | CCOC(=O)c1[nH]c2ccccc2c1NC(=O)c1ccccc1OC | inactive: 12.6% | –
17 | COc1ccc(OC)c(C2=CC(=O)C[C@H](c3ccc4c(c3)OCO4)C2)c1 | – | inconclusive: 28.2 µM [activator, single point]
18 | O=C(c1cccs1)N1CCN(c2ccccc2)CC1 | inactive: -4.84% | –
19 | COc1ccc([C@@H]2[C@@H]3C(=O)N(C(C)(C)C)C(=O)[C@@H]3[C@]3(Cc4ccccc4)C(=O)N(c4cccc(C)c4)C(=O)N23)cc1 | – | active: 28.2 µM
20 | CC(=O)[C@@H]1[C@@H](C(=O)c2ccccc2)[C@]2(C(=O)Nc3ccccc32)[C@H]2C=Cc3cc(F)ccc3N12 | – | inconclusive: 39.8 µM [activator, partial curve, poor fit]
21 | CC(C)C(NC(=O)c1ccc(C(C)(C)C)cc1)C(=O)Nc1ccc(N2CCOCC2)cc1 (stereo not drawn) | – | inconclusive: 22.4 µM [activator, single point]
22 | CCOc1cc2[nH]c(=S)n(CCN3CCCCC3CC)c(=O)c2cc1OCC (stereo not drawn) | inconclusive: 56.4% [activator] | –

Row | SMILES | growth rescue (activation) | Potency
23 | CCOc1ccc(N(CC(=O)N2CCCC2)S(=O)(=O)c2ccc(Cl)cc2)cc1 | inactive: 39.5% | –
24 | O=S(=O)(Nc1cccc(-c2ccc(N3CCOCC3)nn2)c1)c1cc(C(F)(F)F)ccc1Cl | – | inconclusive: 28.2 µM [activator, partial curve, poor fit]
25 | COc1ccc2c(c1)c(=O)c(C(=O)c1ccc(C)cc1)cn2Cc1ccccc1F | – | inconclusive: 28.2 µM [activator, partial curve, poor fit]
26 | CC(=O)Nc1ccc2[nH]c3ccccc3c2c1 | inactive: -8.97% | –
27 | O=C(O)CS(=O)(=O)CC(=O)O | – | inconclusive: 28.2 µM [activator, single point]
28 | CCCS(=O)(=O)N1CCCC(C(=O)NCCCN2CCCC2=O)C1 (stereo not drawn) | – | inconclusive: 0.891 µM [activator, full curve, poor fit]
29 | O=C(NCCN1CCC(Cc2ccccc2)CC1)C1CCCN(S(=O)(=O)c2ccccc2)C1 (stereo not drawn) | inactive: 11.9% | –
30 | CCC/C=C(\CCC)C(NS(=O)(=O)c1cccc2cccnc12)c1ccc(C(=O)OC)cc1 (stereo not drawn) | – | inconclusive: 14.1 µM [activator, partial curve, poor fit]
31 | COc1ccc(OC)c(-c2noc(N3CCN(c4cc(Cl)ccc4C)CC3)n2)c1 | – | inconclusive: 28.2 µM [activator, single point]
32 | Cc1cc(=O)[nH]c(N=N/C(=N/Nc2ccc(O)cc2)c2ccccc2)n1 | – | inconclusive: 20 µM [activator, partial curve, poor fit]
33 | COc1cc(NC(=O)CSc2nc3nc(C)c(Cc4ccccc4)c(C)n3n2)cc(OC)c1 | – | inconclusive: 31.6 µM [activator, partial curve, poor fit]
34 | COc1cccc(-c2cc(NC=O)c3ncc(-c4ccc(F)c(Cl)c4)n3c2)c1 | – | inconclusive: 28.2 µM [activator, single point]
35 | c1ccc(-c2cnc(-c3ccccn3)nn2)cc1 | inactive: -8.2% | –
36 | Cc1ccc(CNC(=O)c2ccc3c(c2)N(Cc2cccc(Cl)c2)C(=O)CS3)cc1 | – | inconclusive: 50.1 µM [activator, single point]
37 | O=C(c1ccc(C#CC2(O)CCCCC2)cc1)N1CCN(C(c2ccccc2)c2ccccc2)CC1 | – | inconclusive: 12.6 µM [activator, partial curve]
38 | COc1ccc(Cn2c(C(=O)O)c(CNCCc3ccccc3Cl)c3ccc(C)cc32)cc1 | – | active: 14.1 µM
39 | COc1cc(C(=S)N2CCN(C(c3ccccc3)c3ccccc3)CC2)cc(OC)c1O | – | inconclusive: 25.1 µM [activator, single point]
40 | CC(C)NC(=O)c1cc2c(Cl)nc3ccccc3c2s1 | inactive: -5.69% | –
41 | Cc1ccc(S(C)(=O)=O)cc1C(=O)OCC(=O)N(Cc1ccccc1)Cc1ccccc1 | – | inconclusive: 28.2 µM [activator, single point]
42 | Cc1cc(C)cc(OCC(=O)Nc2cccc(-c3nc4ccccc4[nH]3)c2)c1 | – | inconclusive: 28.2 µM [activator, single point]
43 | COc1cc(C(=O)OCC(=O)NCc2ccccc2)cc(NC(=O)c2ccco2)c1OC | – | inconclusive: 5.01 µM [activator, full curve, poor fit]

From PubChem BioAssay AID1347120 (National Center for Advancing Translational Sciences (NCATS), 2019)
